Experimental data reported in PubChem BioAssay AID485297 (National Center for Advancing Translational Sciences (NCATS), 2010).
In all, about 320,000 compounds went through this assay and about 9,100 (2.8%) were called active. Inconclusive results, whose numbers are uncertain, are shown with a selection of clear calls. Calls come from the whole dose curve; as a rule, active = well fitted activation curve with a large enough effect; inconclusive = small, poorly fitted or top-dose-only effect; inactive = no such curve, though single readings can be large or run the other way. No potency is given beside an inconclusive call; the fits are too rough.

Test: qHTS Assay for Rab9 Promoter Activators; note: nearly all actives have a fitted effect of over 60% in size
Details: Huh7 Rab9 promoter-luciferase reporter, luminescence, 24 h; series mostly up to 9.22 µM
Summary of the method: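 Luminescence read-out: Huh7 cells stably expressing Rab9-luciferase, treated 24 h with compound at 37 °C, then lysed with luciferase reagent for 10 min at ambient before reading.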
Potency is the fitted concentration of half-maximal effect; tags give direction and shape of the fitted curve.

Row | SMILES | Potency
1 | COc1ccc(C(=O)NCc2cc3ccccc3n2C)cc1 | inconclusive [activator, single point]
2 | COc1ccc(-c2cc(=NCCC(=O)O)c3cc(C)ccc3o2)cc1 | inconclusive [activator, single point]
3 | O=c1[nH]c(=S)[nH]c(O)c1N=Nc1ccc(OC(F)F)cc1 | active: 2 µM
4 | C/C(=N\OC(=O)NC(C)C)c1sc(-c2ccc(Cl)cc2)nc1C | inconclusive [activator, partial curve]
5 | C=CCSc1nnc(NC(=O)c2ccc(Cl)nc2)s1 | inconclusive [activator, partial curve]
6 | O=c1c2ccccc2nc(Cc2ccccc2)n1-c1ccccc1 | inconclusive [activator, partial curve]
7 | Cc1nc2ccc(N3CCN(C)CC3)cc2nc1C | inconclusive [activator, full curve]
8 | COc1ccc(N=Cc2c(O)n(Cc3ccccc3)c(=S)[nH]c2=O)c(OC)c1 | inconclusive [activator, partial curve]
9 | Nc1ccccc1C(=O)OCc1ccc([N+](=O)[O-])cc1 | inconclusive [activator, single point]
10 | NNC(=O)CN1C(=O)CN=C(c2ccccc2)c2cc(Br)ccc21 | inconclusive [activator, single point]
11 | Cc1ccc(NN=C2C(=O)OC(C)(C)OC2=O)c(C)c1 | inconclusive [activator, single point]
12 | CCNC(=O)O/N=C(\C)c1sc(-c2ccccc2)nc1C | inconclusive [activator, single point]
13 | CCOc1ccc2nc(N3CCC(C(=O)N4CCC5(CC4)OCCO5)CC3)sc2c1 | inconclusive [activator, single point]
14 | COc1ccc(-c2cc(C(=O)N3CCC4(CC3)OCCO4)c3ccccc3n2)cc1 | inconclusive [activator, partial curve]
15 | O=C(Nc1ccc(COc2ccccc2)cc1)Oc1ccccc1N1CCOCC1 | inconclusive [activator, partial curve]
16 | CCOc1ccc(/C=C/C(=O)C(C(N)=O)=C2SCCS2)cc1 | inconclusive [activator, single point]
17 | NC1=NC(=O)C(c2ccccc2)O1 (stereo unspecified) | inconclusive [activator, single point]
18 | Cn1cccc1/C=C1\C(=O)NC(=O)N(Cc2ccco2)C1=O | inactive
19 | CCOc1ccccc1CNCCc1ccc2c(c1)OCO2 | inactive
20 | CCC(Oc1cc(Cl)ccc1Cl)C(=O)N1CCC2(CC1)OCCO2 (stereo unspecified) | active: 1.78 µM
21 | N#C/C(=C\c1ccc([N+](=O)[O-])cc1)c1nc(C2CC2)cs1 | inconclusive [activator, single point]
22 | CCOc1ccc(NC(=O)c2ccc(NC(=O)COC(=O)Cc3ccccc3)cc2)cc1 | inconclusive [activator, partial curve]
23 | CCCCN1CC(O)=C(c2nc3ccccc3s2)C1=N | inconclusive [activator, partial curve]

Row | SMILES | Potency
24 | c1cncc(C2Nc3cccc4cccc(c34)N2)c1 | inconclusive [activator, single point]
25 | CCn1c(C)c(C(=O)Nc2ccc(OC)cc2)c2cc(OC)ccc21 | inconclusive [activator, partial curve]
26 | CC(C)Oc1ccc(CNC(=O)Oc2ccccc2)cc1 | active: 3.16 µM
27 | O=C(Oc1ccc2ccccc2c1Cl)N1CCCC1 | active: 2 µM
28 | Oc1ccc2c3c1O[C@H]1c4[nH]c5ccccc5c4C[C@@]4(O)[C@@H](C2)N(CC2CC2)CC[C@]314 | inactive
29 | CC(c1nccs1)N(C)C(=O)c1cn(Cc2cccc3ccccc23)nn1 (stereo unspecified) | inconclusive [activator, partial curve]
30 | Clc1ccccc1CN1CCN(c2ccccc2Cl)CC1 | inconclusive [activator, single point]
31 | COc1ccc(CNC(=O)c2ccc(C(C)C)cc2)cc1 | active: 2.24 µM
32 | c1ccc(C2NCCc3[nH]cnc32)cc1 (stereo unspecified) | inconclusive [activator, single point]
33 | O=C(CN1CCCC1)Nc1ccc(NC(=O)Nc2ccccc2)cc1 | inconclusive [activator, partial curve]
34 | O=C(c1cc(-c2ccccc2)on1)N1CCC2(CC1)OCCO2 | active: 3.98 µM
35 | CN(C(=O)Oc1ccc(C(C)(C)C)cc1)c1ccccc1 | inconclusive [activator, single point]
36 | CC[C@@H](CO)Nc1nc(NCc2ccccc2)c2ncn(C(C)C)c2n1 | inactive
37 | Cn1c(O)c(C=Nc2ccc3c(c2)CCC3)c(=O)n(C)c1=O | inconclusive [activator, partial curve]
38 | CCOC(=O)c1ccc(Nc2nc(C)cc(C)n2)cc1 | inconclusive [activator, single point]
39 | O=[N+]([O-])c1ccc(-c2ccccc2)c([As](=O)(O)O)c1 | inconclusive [activator, single point]
40 | c1ccc2c(CN3CCOCC3)c[nH]c2c1 | inactive
41 | COc1cccc(N2C(=O)NC(=O)/C(=C/c3ccc4c(c3)Cc3ccccc3-4)C2=O)c1 | inactive
42 | CCc1cc2c(=O)n(C(C)C(=O)OC3CCCCC3)cnc2s1 (stereo unspecified) | inconclusive [activator, partial curve]
43 | COc1ccc(CCn2c(NN=C3CCCC3)nc3c2c(=O)[nH]c(=O)n3C)cc1 | inconclusive [activator, single point]
44 | O=C(Nc1ccc(Cl)cc1)OC1CN2CCC1CC2 (stereo unspecified) | inconclusive [activator, partial curve]
45 | Cc1ccc(/C=C/C(=O)C2C(=O)c3ccccc3C2=O)cc1 | inconclusive [activator, full curve]
46 | CC(C)[C@H]1C(=O)O[C@@H]2CCN3CC=C(COC(=O)[C@](C)(O)[C@]1(C)O)[C@H]23 | inconclusive [activator, single point]
